Results from the supplement of paper PMC8728848.
This is one part of the list.

Columns and labels:
Assay in all cases: glycan array binding signal (z-score within array); higher = stronger binding
Details in all cases: glycan notation: IUPAC condensed, linker removed
[1] = target: Fuc(a1-2)[GalNAc(a1-3)]Gal(b1-4)GlcNAc(b1-3)Gal(b1-4)GlcNAc
Procedure, shortened: (§1)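 The binding signal is a Z-score computed within each array. Data were drawn from 3228 arrays in the Consortium for Functional Glycomics database, restricted to those with a known protein sequence. Scores were averaged over arrays of the same protein sequence at different concentrations or buffers, and over linkers, and negative values can be taken as non-binding.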

[2] = target: Fuc(a1-2)[GalNAc(a1-3)]Gal(b1-4)GlcNAc(b1-3)Gal(b1-4)GlcNAc(b1-3)Gal(b1-4)GlcNAc
Procedure, shortened: as §1

[3] = target: Fuc(a1-2)[GalNAc(a1-3)]Gal(b1-4)GlcNAc(b1-3)GalNAc
Procedure, shortened: as §1

[4] = target: Fuc(a1-2)[GalNAc(a1-3)]Gal(b1-4)GlcNAc(b1-3)[Fuc(a1-2)[GalNAc(a1-3)]Gal(b1-4)GlcNAc(b1-6)]GalNAc
Procedure, shortened: as §1

[5] = target: Fuc(a1-2)[GalNAc(a1-3)]Gal(b1-4)GlcNAc(b1-6)GalNAc
Procedure, shortened: as §1

[6] = target: Fuc(a1-2)[GalNAc(a1-3)]Gal(b1-4)[Fuc(a1-3)]GlcNAc
Procedure, shortened: as §1

[7] = target: Fuc(a1-2)[GalNAc(a1-3)]Gal(b1-4)[Fuc(a1-3)]GlcNAc(b1-3)GalNAc
Procedure, shortened: as §1

[8] = target: Fuc(a1-2)[GalNAc(a1-4)]Gal(b1-4)GlcNAc
Procedure, shortened: as §1

[9] = target: Fuc(a1-2)[GalNAc(b1-3)]Gal
Procedure, shortened: as §1

[10] = target: Fuc(a1-3)GlcNAc
Procedure, shortened: as §1

[11] = target: Fuc(a1-3)[Gal(b1-4)]Glc6S
Procedure, shortened: as §1

[12] = target: Fuc(a1-3)[Gal(b1-4)]GlcNAc
Procedure, shortened: as §1

[13] = target: Fuc(a1-3)[Gal(b1-4)]GlcNAc(b1-2)Man
Procedure, shortened: as §1

[14] = target: Fuc(a1-3)[Gal(b1-4)]GlcNAc(b1-2)Man(a1-3)[Fuc(a1-3)[Gal(b1-4)]GlcNAc(b1-2)Man(a1-6)]Man(b1-4)GlcNAc(b1-4)GlcNAc
Procedure, shortened: as §1

[15] = target: Fuc(a1-3)[Gal(b1-4)]GlcNAc(b1-2)Man(a1-3)[Fuc(a1-3)[Gal(b1-4)]GlcNAc(b1-2)Man(a1-6)]Man(b1-4)GlcNAc(b1-4)[Fuc(a1-6)]GlcNAc
Procedure, shortened: as §1

[16] = target: Fuc(a1-3)[Gal(b1-4)]GlcNAc(b1-3)Gal(b1-3)[Fuc(a1-4)]GlcNAc
Procedure, shortened: as §1

[17] = target: Fuc(a1-3)[Gal(b1-4)]GlcNAc(b1-3)Gal(b1-4)[Fuc(a1-3)]GlcNAc
Procedure, shortened: as §1

[18] = target: Fuc(a1-3)[Gal(b1-4)]GlcNAc(b1-3)Gal(b1-4)[Fuc(a1-3)]GlcNAc(b1-3)Gal(b1-4)[Fuc(a1-3)]GlcNAc
Procedure, shortened: as §1

[19] = target: Fuc(a1-3)[Gal(b1-4)]GlcNAc(b1-3)GalNAc
Procedure, shortened: as §1

[20] = target: Fuc(a1-3)[Gal(b1-4)]GlcNAc(b1-6)GalNAc
Procedure, shortened: as §1

[21] = target: Fuc(a1-3)[Gal(b1-4)]GlcNAc(b1-6)[Gal(b1-3)GlcNAc(b1-3)]Gal(b1-4)Glc
Procedure, shortened: as §1

[22] = target: Fuc(a1-3)[Gal(b1-4)]GlcNAc6S
Procedure, shortened: as §1

[23] = target: Fuc(a1-3)[Gal3S(b1-4)]Glc
Procedure, shortened: as §1

B1: InvD YPIII (Yersinia pseudotuberculosis), B1JSC0 (protein)
chain: MIKYFSFFKKPEPIVGILPNRQSHHILPTHIRRVAWGTLLLQLFIPLSVSFSPAIAAMKASKADTMVSYSSTEPYVLGSGETVAMVAKKYGITVDELKKINIYRTFSRPFTALTTGDEIDIPRKASPFSVDNNKDNRLSVENTLAGHAVAGATALSNGDVAKSGERMVRSAASNEFNNSAQQWLSQFGTARVQLNINDDFHLDGSAADVLIPLYDNEKSILFTQLGARNKDSRNTVNMGAGVRTFQGNWMYGANTFFDNDLTGKNRRIGVGAEAWTDYLKLSANNYFGITDWHQSRDFIDYNERPANGYDLRAEAYLPSYPQLGGKAMYEKYRGDDVALFGKDNRQKNPHAITAGVNYTPIPLVTIGAEHRAGKGGQNDSNINFQLNYRLGETWQSHIDPSAVAASRTLAGSRYDLVERNNHIVLDYQKQNLVRLSLPDSLAGDPFSQLSVTAQVTATHGLERIDWQSAELMAAGGVLKQTSKNGLEITLPEYQMNRTGGNSYILNAIAYDTQGNASSQASMLITVNAQKINIANSTLVAVPINIEANNSDTSVVTLTLKDDNNIPVTGQDVTFLSPLGTLSAMTDSGNGVYTATLTAGTVSGTTAVSSNINGSALDMTPATVTLNGNSGELSITHSMLVAAPVNIEANGSDTSVVTLTLRDSNNNPVTGQTVTFAGTLGTLGAVTEGSSGVYTATLTAGIMVGTSSITASVNSTALGVTPATVTLNGDSGNLSTTNSTLVAAPVNIEANSSDTSVVTLTLRDNNNNPVTGQTVVFTSTLGTLGNVTEQASGVYTATLTAGTVSGVASLSVSVGGNALGVTPATVTLNGDSGNLSTTNSTLVAAPVNIEANSSDTSVVTLTLRDNNNNPVTGQTVNFAGTLGTLGTVSEGSSGVYTTTLTAGTVAGVASLSVNVGGNALGVTPATVTLNGNSGNLSATNSTLVAAPVNIEANSSDTSVVTLTLRDNNNNPVTGQTVAFTSTLGTLGNVTEQASGVYTATLTAGTVSGVASLSVSVNSNALGVTPATVTLNGDSGNLSTTNSTLVAAPVNIEANSSDTSVVTLTLRDNNNNPVTGQTVAFTSTLGTLGNVTEQASGLYTATLTAGTVSGVASLSVNVGGNALGVTPATVTLNGDSGNLSATNSTLVAAPVNIEANSSDTSVVTLTLRDNNNNPVTGQTVAFTSTLGTLGNVTEQASGLYTATLTAGTVSGVASLSVNVGGTALGVTPATVTLNGDSGNLSTTNSTLVAAPVNIEANSSDTSVVTLTLRDNNNNPVTGQTVAFTSTLGTLGNVTEQASGLYTATLTAGTVSGVASLSVSVNSTALGVTPATVTLNGDSGNLSTTNSTLVAAPVNIEANSSDTSVVTLTLRDNNNNPVTGQTVAFTSTLGTLGNVTEQASGVYTATLTAGTVAGVASLSVNVGGNALGVTPATVTLNGDSGNLSTTNSTLVAAPVNIEANSSDTSVVTLTLRDNNNNPVTGQTVAFTSTLGTLGNVTEQASGVYTATLTAGTVSGVASLSVSVGSSALGVTPATVTLNGDSGNLSTTNSTLVAAPVNIEANNSDTSVVTLTLRDNNNNPVTGQTVAFTSTLGTLGNVTEQASGVYTATLTAGTVSGVASLSVSVNSNALGVTPATVTLNGDSGNLSTTNSTLVAAPVNIEANSSDTSVVTLTLRDNNNNPVTGQTVVFTSTLGTLGNVTEQASGLYTATLTAGTVSGVASLSVSVGGNALGVTGNITLAPGALDAARSILAVNKPSINADDRIGSTITFTAQDAQGNAITGLDIAFMTDLENSQIMTLVDHNDGTYTANINGTQTGIANIAVQSSGATIAGLAATMVTITPGAWNTTQATPVMTVALPITTCQSSSGVYKRYYIGIVTHELYDNYGNEISGILTYNLGAGRYTTVTSQNSSVSGSNGLTRRSNSPVSHFILTSDAYTSQAACYAERIANVNVTITVTAITDDFKTSAVNKVFILGTGSN
glycan array binding signal (z-score) [1]: -0.044
glycan array binding signal (z-score) [2]: 0.761
glycan array binding signal (z-score) [3]: -0.306
glycan array binding signal (z-score) [4]: 0.346
glycan array binding signal (z-score) [5]: 0.038
glycan array binding signal (z-score) [6]: 0.547
glycan array binding signal (z-score) [7]: 0.119
glycan array binding signal (z-score) [8]: -0.158
glycan array binding signal (z-score) [9]: 0.063
glycan array binding signal (z-score) [10]: -0.128
glycan array binding signal (z-score) [11]: -0.08
glycan array binding signal (z-score) [12]: -0.072
glycan array binding signal (z-score) [13]: -0.112
glycan array binding signal (z-score) [14]: -0.169
glycan array binding signal (z-score) [15]: -0.147
glycan array binding signal (z-score) [16]: -0.274
glycan array binding signal (z-score) [17]: 0.096
glycan array binding signal (z-score) [18]: 0.449
glycan array binding signal (z-score) [19]: -0.024
glycan array binding signal (z-score) [20]: -0.132
glycan array binding signal (z-score) [21]: -0.224
glycan array binding signal (z-score) [22]: -0.197
glycan array binding signal (z-score) [23]: -0.259
